Screen size: about 310,000 compounds; about 2,200 (0.71%) showed an effect of 50% or more. The effect is printed as a negative number. The list shows a part of the results.
Biological target: human ether-à-go-go-related gene (hERG) potassium channel (human, UniProt Q12809)
Assay: primary screen, population patch clamp on CHO cells stably expressing hERG

Sequence of human ether-à-go-go-related gene (hERG) potassium channel (Q12809 whole entry, looked up): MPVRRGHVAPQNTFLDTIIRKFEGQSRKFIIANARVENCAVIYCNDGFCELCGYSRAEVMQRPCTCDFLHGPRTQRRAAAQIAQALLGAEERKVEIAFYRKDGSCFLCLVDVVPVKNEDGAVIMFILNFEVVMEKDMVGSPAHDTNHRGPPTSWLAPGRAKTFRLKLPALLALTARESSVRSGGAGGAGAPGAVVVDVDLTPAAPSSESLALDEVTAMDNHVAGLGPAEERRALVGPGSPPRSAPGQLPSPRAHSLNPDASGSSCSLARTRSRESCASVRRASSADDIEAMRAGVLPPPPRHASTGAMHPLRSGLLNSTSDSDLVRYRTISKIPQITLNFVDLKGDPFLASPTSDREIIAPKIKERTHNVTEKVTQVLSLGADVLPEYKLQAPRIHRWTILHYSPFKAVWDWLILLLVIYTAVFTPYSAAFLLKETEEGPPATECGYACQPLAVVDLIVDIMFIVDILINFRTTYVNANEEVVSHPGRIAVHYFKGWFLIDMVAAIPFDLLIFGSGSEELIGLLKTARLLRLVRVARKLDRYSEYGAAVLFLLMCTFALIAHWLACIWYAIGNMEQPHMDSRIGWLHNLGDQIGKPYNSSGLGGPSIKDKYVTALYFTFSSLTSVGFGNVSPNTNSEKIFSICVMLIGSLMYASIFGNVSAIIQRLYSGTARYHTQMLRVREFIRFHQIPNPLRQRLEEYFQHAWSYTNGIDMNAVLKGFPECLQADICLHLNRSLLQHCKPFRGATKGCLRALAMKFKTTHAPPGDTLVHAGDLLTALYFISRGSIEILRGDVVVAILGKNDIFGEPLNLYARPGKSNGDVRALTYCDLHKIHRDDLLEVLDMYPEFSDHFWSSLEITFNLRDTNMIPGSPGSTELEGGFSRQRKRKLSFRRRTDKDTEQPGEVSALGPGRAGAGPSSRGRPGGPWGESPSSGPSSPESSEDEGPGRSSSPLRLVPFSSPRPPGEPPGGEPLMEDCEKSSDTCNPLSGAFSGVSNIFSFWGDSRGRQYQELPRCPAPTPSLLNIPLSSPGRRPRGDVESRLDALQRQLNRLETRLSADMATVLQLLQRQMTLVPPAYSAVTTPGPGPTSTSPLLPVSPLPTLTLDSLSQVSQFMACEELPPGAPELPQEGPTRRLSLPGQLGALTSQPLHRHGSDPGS

Compound	hERG current change (%, negative = inhibition) at 1uM [%]
Cc1ccc(NC(=O)COCC(=O)Nc2ccc(C)cc2)cc1	2.38
C/C(=N/NC(=O)CN1CCN(S(=O)(=O)c2ccc(C)cc2)CC1)c1ccco1	-17.3
O=C(/C=C/c1ccc([N+](=O)[O-])cc1)NCC1CCCO1 (centres unmarked)	-5.23
COC(=O)c1cc2c(C(F)(F)F)nn(C)c2s1	15.5
CN1/C(=C/C=C(/C#N)C(N)=O)C(C)(C)c2ccccc21	-3.87
Cc1ccccc1OCC(=O)Nc1ccc(C(=O)Nc2ccccc2C(=O)O)cc1	6.07
COc1ccc(N(C(=O)Cc2cccs2)C(C(=O)NC2CCCC2)c2ccncc2)cc1 (centres unmarked)	12
CCCn1nnnc1COc1ccc(C(N)=O)cc1	13.5
Cc1sc2ncnc(N3CCC(C(=O)Nc4ccc(S(N)(=O)=O)cc4)CC3)c2c1C	0.338
COc1ccc(C2CC(c3ccccc3)=NN2C(=O)COC(=O)c2ccc(S(C)(=O)=O)cc2)cc1 (centres unmarked)	9.28
Cc1cccc(NS(=O)(=O)c2ccc3[nH]c(=O)cc(C(=O)O)c3c2)c1	9.99
CC(=O)Oc1cc(O)c2c(=O)c(OC(C)=O)c(-c3ccc(OC(C)=O)c(OC(C)=O)c3)oc2c1	12.5
C=Cn1ccnc1P(=S)(c1nccn1C=C)C1CCCCC1	-8.48
CC(NC(=S)Nc1ccc(S(N)(=O)=O)cc1)c1ccc2c(c1)OCO2 (centres unmarked)	1.61
COC(=O)COC(=O)CC(CC(N)=O)c1ccccc1 (centres unmarked)	14.5
O=C(/C=C/c1cccs1)N1CCC2(CC1)Oc1ccc(Cl)cc1C(=O)C21CC(c2cccnc2)=NO1 (centres unmarked)	12.1
O=C(CCCCCCCCN1C(=O)c2ccccc2C1=O)N1CCOCC1	10.2
COc1ccc(OCc2nnc(SCC(=O)N3CCCC3)o2)cc1	13.6
Nc1nnc(-c2ccco2)s1	11.3
O=C(N/N=C/c1cc(Br)ccc1O)c1ccccc1Cl	8.01
O=C(C1c2ccccc2C(=O)N2CCc3ccccc3C12)N1CCC2(CC1)OCCO2 (centres unmarked)	6.89
Cc1ccc(C(=O)COC(=O)Cc2ccccc2)cc1	7.96

Compound	hERG current change (%, negative = inhibition) at 1uM [%]
Cc1ccc(OCC(=O)c2ccc3c(c2)CCCC3)cc1C	8.51
O=C(Nc1ccc(F)cc1)c1cccnn1	8.48
CCOc1c(S(=O)(=O)NC2CC(C)(C)NC(C)(C)C2)ccc(Cl)c1Cl	17.8
O=C(OCC(=O)N1CCOCC1)c1ccc(F)cc1Cl	29.1
O=C(Nc1ccc(Cl)cn1)c1ccc2c(c1)OCCO2	10.4
COc1ccc(-c2cc(-c3c(O)c(OC)c4occc4c3OC)[nH]n2)cc1	9.03
Cc1nn(CC(=O)Nc2cccc(C(F)(F)F)c2)c(=O)c2cccn12	-14.2
O=C(CN1C(=O)S/C(=C\c2ccccn2)C1=O)Nc1ccc(F)cc1	13.9
COc1ccc(C)cc1NC(=O)c1ccc2c(c1)C(=O)N(Cc1ccncc1)C2=O	-0.645
CCCCCc1nc(N)c(C#N)c(-c2ccco2)c1CCCC	10.5
O=S(=O)(NC1CCCCCCC1)c1cccs1	-18.3
O=C(O)CCCC(=O)OCc1c(-c2ccccc2)ncc2ccccc12	9.82
Cn1c(N2CCN(c3ccccn3)CC2)nc2c1c(=O)n(Cc1ccc(Cl)cc1)c(=O)n2C	5.88
CCc1ccc(Nc2n[n+](-c3ccccc3)c(-c3cc(OC)c(OC)cc3Br)s2)cc1.[Cl-]	-0.471
Cc1ccnc(NS(=O)(=O)c2cc(C(F)(F)F)ccc2Cl)c1	8.03
CN(C)c1ccc(C(C[N+](=O)[O-])c2c(N)n(C)c(=O)n(C)c2=O)c(F)c1C#N (centres unmarked)	13.1
CCOC(=O)N1CCN(c2cc(=O)n(C)c(=O)n2C)CC1	16.3
COc1ccc(CCn2c(N)c(C#N)c3nc4ccccc4nc32)cc1OC	14
COc1nc(-c2ccccc2)ccc1-c1noc(-c2ccco2)n1	-3.78
CCOC(=O)N1CCN(Cc2nc3cc(NC(=O)CC(C)C)ccc3n2CC)CC1	5.23
CN1CCCN(C(=O)c2ccccc2Cl)CC1	5.08
CCOC(=O)c1ccc(NC(=O)CSc2nc(C)nc3c2c(=O)n(C)c(=O)n3C)cc1	-14.2

Reference: publication PMC4336329 (PLoS ONE, 2015)
